From the antibiotic and cytotoxicity screens of Wong et al. (2023)
The other results are listed elsewhere or left out.

system: S. aureus RN4220; assay: growth inhibition call (relative growth <= 0.2); details: 50 µM

Growth inhibition call, inactive:
CCS(=O)(=O)N1CC[C@]2(CC1)CN([C@H](CO)c1c2c2ccc(cc2n1C)OC)C(=O)CN1CCOCC1
C[C@H](CO)N1C[C@H](C)[C@@H](CN(C)S(=O)(=O)c2cccs2)Oc2c(NC(=O)Nc3cccc4ccccc34)cccc2C1=O
CO[C@H]1CN(C)C(=O)c2cc(NS(=O)(=O)c3cn(C)cn3)ccc2OC[C@H](C)N(CCC(F)(F)F)C[C@H]1C
C[C@@H]1CCCCO[C@@H](CN(C)Cc2ccccc2)[C@@H](C)CN([C@H](C)CO)C(=O)c2cc(NC(=O)CCC(F)(F)F)ccc2O1
C[C@@H]1CN([C@H](C)CO)C(=O)c2cc(NC(=O)CCN3CCOCC3)ccc2O[C@H]1CN(C)S(C)(=O)=O
CC(C)(O)/C=C/C(=O)[C@](C)(O)[C@H]1[C@H](O)C[C@@]2(C)[C@@H]3CC=C4[C@@H](C=C(O[C@@H]5O[C@H](CO)[C@@H](O)[C@H](O)[C@H]5O)C(=O)C4(C)C)[C@]3(C)C(=O)C[C@]12C
C[C@@H]1CN([C@H](C)CO)C(=O)c2cc(NC(=O)Nc3ccc(C(F)(F)F)cc3)ccc2O[C@H]1CN(C)C(=O)Nc1ccccc1
Cc1noc(C)c1NC(=O)N(C)C[C@@H]1Oc2c(NC(=O)c3ccncc3)cccc2C(=O)N([C@H](C)CO)C[C@@H]1C
CNCc1nc(C(C)C)no1
C[C@@H]1CN([C@H](C)CO)C(=O)Cc2cc(N(C)C)ccc2O[C@H]1CN(C)C(=O)Nc1ccc2c(c1)OCO2
C[C@@H]1CN([C@@H](C)CO)C(=O)c2cc(NC(=O)Nc3ccc4c(c3)OCO4)ccc2O[C@@H](C)CCCCO[C@@H]1CN(C)Cc1ccc(C(=O)O)cc1
C[C@@H]1CN([C@H](C)CO)C(=O)c2cc(NC(=O)c3ccncc3)ccc2O[C@@H]1CN(C)Cc1ccc2c(c1)OCO2
C[C@H]1CN([C@@H](C)CO)C(=O)c2cccc(NC(=O)CCCCCC(=O)Nc3ccccc3N)c2O[C@@H]1CN(C)C(=O)Nc1ccc(F)cc1
O=c1[nH]ncc2ccccc12
C[C@H](CO)N1C[C@H](C)[C@H](CN(C)Cc2ccc(F)cc2)Oc2cc(C#CC(C)(C)O)ccc2S1(=O)=O
C[C@H](CO)N1C[C@H](C)[C@@H](CN(C)Cc2ccc(Cl)c(Cl)c2)Oc2c(NS(=O)(=O)c3cccs3)cccc2C1=O
C[C@H](CO)N1C[C@H](C)[C@H](CN(C)C(=O)Nc2cccc3ccccc23)Oc2ccc(NC(=O)Nc3ccc4c(c3)OCO4)cc2C1=O
C[C@@H]1CN([C@H](C)CO)C(=O)c2cc(NC(=O)Nc3cccc4ccccc34)ccc2O[C@@H](C)CCCCO[C@H]1CN(C)Cc1ccncc1
CCCC(=O)Nc1ccc2c(c1)C(=O)N(C)C[C@H](OC)[C@@H](C)CN(Cc1ccc(-c3ccccn3)cc1)[C@H](C)CO2
COc1ccccc1-c1cnc2c(c1)C(=O)N([C@H](C)CO)C[C@H](C)[C@H](CN(C)C(=O)c1ccncc1)O2
C[C@@H](NC(=O)C[C@@H]1C=C[C@@H](NC(=O)CN2CCOCC2)[C@@H](CO)O1)c1ccccc1
CC(C)(C)NC(=O)N1CCC(CN)CC1
C[C@H](CO)N1C[C@H](C)[C@H](CN(C)C(=O)Nc2ccc(F)cc2)OCCCC[C@H](C)Oc2ccc(NC(=O)CCC(F)(F)F)cc2C1=O
N=C(NO)C(=O)Nc1ccccc1
CCCNC(=O)N1C[C@@H](C)[C@@H](OC)CN(C)C(=O)c2ccc(NS(=O)(=O)CC(F)(F)F)cc2OC[C@H]1C
C[C@@H]1CCCCO[C@@H](CN(C)Cc2ccc(C(=O)Nc3ccccc3N)cc2)[C@@H](C)CN([C@H](C)CO)C(=O)c2cc(NC(=O)Nc3ccc(F)cc3)ccc2O1
C[C@@H]1CN([C@@H](C)CO)C(=O)Cc2cc(NS(C)(=O)=O)ccc2O[C@@H]1CN(C)S(=O)(=O)c1cn(C)cn1
COc1ccc(NC(=O)Nc2ccc3c(c2)[C@H]2C[C@@H](CC(=O)NCC(F)(F)F)O[C@@H](CO)[C@H]2O3)cc1
O=C(O)c1nn(Cc2ccccc2)nc1C(=O)O
O=C(CN1CCOCC1)NCC[C@H]1CC[C@@H](NC(=O)Cc2ccccn2)[C@H](CO)O1
